Measurements as given in patent US20250101074A1 (Affibody, published 2025).
Like-named read-outs stand apart in the source and are kept apart here.

T1: human IL-17F (human, UniProt Q96PD4 31-163)
T1 construct: R&D Systems cat. no; 1335-IL/CF; also called hIL-17F
T1 sequence: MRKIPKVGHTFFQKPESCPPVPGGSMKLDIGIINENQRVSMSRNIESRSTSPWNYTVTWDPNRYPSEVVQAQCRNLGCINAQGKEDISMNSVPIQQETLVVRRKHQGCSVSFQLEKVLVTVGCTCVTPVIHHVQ

T2: human IL-17A (human, UniProt Q16552 20-155, limits assumed)
T2 sequence: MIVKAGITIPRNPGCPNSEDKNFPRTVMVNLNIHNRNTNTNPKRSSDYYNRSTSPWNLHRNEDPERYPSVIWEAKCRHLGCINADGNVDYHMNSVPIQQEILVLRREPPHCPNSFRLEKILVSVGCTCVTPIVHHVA

T3: rhesus monkey IL-17A (rhesus monkey, UniProt Q16552 24-155 (human entry), limits assumed)
T3 construct: Cusabio cat. no; CSB-EP011597MOV; also called rmIL-17A; rmIL-17-A
T3 chain: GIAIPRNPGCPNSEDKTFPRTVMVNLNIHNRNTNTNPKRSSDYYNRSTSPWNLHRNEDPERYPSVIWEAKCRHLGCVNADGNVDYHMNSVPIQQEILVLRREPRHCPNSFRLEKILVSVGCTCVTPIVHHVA

T4: cynomolgus monkey IL-17A (cynomolgus monkey, UniProt Q16552 24-155 (human entry), limits assumed)
T4 construct: Evitria, custom order; also called cIL-17A; cynomolgus IL-17A
T4 chain: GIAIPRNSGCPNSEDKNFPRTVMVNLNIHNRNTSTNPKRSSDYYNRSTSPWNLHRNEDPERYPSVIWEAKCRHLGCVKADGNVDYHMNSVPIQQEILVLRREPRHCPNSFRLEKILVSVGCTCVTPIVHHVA

B1: His6-Z10508 (designed binder)
chain: MGSSHHHHHHLQVDAKYAKEADDAAVEIAALPNLTWDQWFAFISKLRDDPSQSSELLSEAKKLNDSQAPKVD
B2: His6-Z15167 (designed binder)
chain: MGSSHHHHHHLQVDAKYAKEADDAAVEIASLPNLTWAQWYAFIQKLRDDPSQSSELLSEAKKLNDSQAPKVD
B3: His6-Z10532 (designed binder)
chain: MGSSHHHHHHLQVDAKYAKEADDAAVEIASLPNLTWDQWYAFIQKLRDDPSQSSELLSEAKKLNDSQAPKVD
B4: ZAZ3220 (designed binder)
chain: VDAKYAKEADDAAVEIADLPNLTWDQWYAFISKLRDDPSQSSELLSEAKKLNDSQAPKGAPGGGGSGGGGSGGGGSGGGGSTSLAEAKEAANAELDSYGVSDFYKRLIDKAKTVEGVEALKDAILAALPGTGGGGSGGGGSGGGGSGGGGSPRVDAKYAKEADDAAVEIADLPNLTWDQWYAFISKLRDDPSQSSELLSEAKKLNDSQAPK
notes: Z-ABD-Z polypeptide; also called Z10241-[GAP-(G4S)4-TS]-PP013-[GT-(G4S)4-PR]-Z10241
B5: ZAZ3363 (designed binder)
chain: AEAKYAKEADDAAVEIASLPNLTWDQWYAFIQKLRDDPSQSSELLSEAKKLNDSQAPKASGSLAEAKEAANAELDSYGVSDFYKRLIDKAKTVEGVEALKDAILAALPGTGGGGSAEAKYAKEADDAAVEIASLPNLTWDQWYAFIQKLRDDPSQSSELLSEAKKLNDSQAPK
notes: Z-ABD-Z polypeptide; also called Z14253-[ASGS]-PP013-[GT-G4S]-Z14253
B6: ZAZ3364 (designed binder)
chain: AEAKYAKEADDAAVEIAALPNLTWDQWFAFISKLRDDPSQSSELLSEAKKLNDSQAPKASGSLAEAKEAANAELDSYGVSDFYKRLIDKAKTVEGVEALKDAILAALPGTGGGGSAEAKYAKEADDAAVEIAALPNLTWDQWFAFISKLRDDPSQSSELLSEAKKLNDSQAPK
notes: Z-ABD-Z polypeptide; also called Z14254-[ASGS]-PP013-[GT-G4S]-Z14254
B7: ZAZ3365 (designed binder)
chain: AEAKYAKEADQAAVEIADLPNLTWAQWYAFIQKLRDDPSQSSELLSEAKKLNDSQAPKASGSLAEAKEAANAELDSYGVSDFYKRLIDKAKTVEGVEALKDAILAALPGTGGGGSAEAKYAKEADQAAVEIADLPNLTWAQWYAFIQKLRDDPSQSSELLSEAKKLNDSQAPK
notes: Z-ABD-Z polypeptide; also called Z14255-[ASGS]-PP013-[GT-G4S]-Z14255
B8: Z06282-ABD (designed binder)
chain: MGSSLQVDAKYAKEADQAAMEIATLPNLTWDQWFAFIAKLRDDPSQSSELLSEAKKLNDSQAPKVDSSLAEAKEAANAELDSYGVSDFYKRLIDKAKTVEGVEALKDAILAALP
B9: His6-Z06455 (designed binder)
chain: MGSSHHHHHHLQVDAKYAKEMDNAQWEIWLLPNLTWAQQHAFIGKLIDDPSQSSELLSEAKKLNDSQAPKVD

Experiments:
[1] = target: T1, human IL-17F; experiment: SPR (Biacore 2000), hIL-17F immobilized on a CM5 chip, 20 nM Z variant injected, blank surface subtracted
Experimental: (§1) The immobilization was performed using amine coupling chemistry according to the manufacturer's protocol and using HBS-EP as running buffer. One flow cell surface on the chip was activated and deactivated for use as blank during analyte injections. […] The results were analyzed using the BiaEvaluation software.

[2] = target: T2, human IL-17A; experiment: cell-based or functional assay
[3] = target: T2, human IL-17A; experiment: SPR (Biacore), immobilized hIL-17A, 1:1 model
Experimental: One flow cell surface on the chip was activated and deactivated for use as blank during analyte injections. In the kinetic experiment, HBS-EP was used as running buffer and the flow rate was 50 μl/min. […] Kinetic constants were calculated from the sensorgrams using the Langmuir 1:1 model of BiaEvaluation software 4.1 (GE Healthcare).

[4] = target: T3, rhesus monkey IL-17A; experiment: SPR (Biacore), ZAZ captured on immobilized HSA, IL-17A injected
Experimental: as §1, with “buffer. […]” for “buffer.”

[5] = target: T2, human IL-17A; experiment: cell-based or functional assay; remark: listed apart in the source
[6] = target: T2, human IL-17A; experiment: KinExA, ZAZ in complex with HSA, IL-17A as titrant
[7] = target: T2, human IL-17A; experiment: KinExA, ZAZ in complex with HSA, IL-17A as titrant; ZAZ3220 in complex with HSA; KinExA
[8] = target: T2, human IL-17A; experiment: cell-based or functional assay; remark: listed apart in the source
[9] = target: T5, human serum albumin (human, UniProt P02768 25-609); experiment: KinExA, ZAZ3363 in complex with IL-17A, HSA as titrant
T5 construct: also called HSA

[10] = target: T4, cynomolgus monkey IL-17A; experiment: SPR (Biacore 2000), ZAZ polypeptide captured on immobilized HSA, cynomolgus IL-17A injected at 2.5, 10 and 40 nM, blank surface subtracted
Experimental: as §1, with “buffer. […]” for “buffer.”

[11] = target: T5, human serum albumin; experiment: KinExA, free ZAZ3363, HSA as titrant
[12] = target: T2, human IL-17A; experiment: cell-based or functional assay; remark: listed apart in the source

T5 sequence (P02768 25-609 limits assumed): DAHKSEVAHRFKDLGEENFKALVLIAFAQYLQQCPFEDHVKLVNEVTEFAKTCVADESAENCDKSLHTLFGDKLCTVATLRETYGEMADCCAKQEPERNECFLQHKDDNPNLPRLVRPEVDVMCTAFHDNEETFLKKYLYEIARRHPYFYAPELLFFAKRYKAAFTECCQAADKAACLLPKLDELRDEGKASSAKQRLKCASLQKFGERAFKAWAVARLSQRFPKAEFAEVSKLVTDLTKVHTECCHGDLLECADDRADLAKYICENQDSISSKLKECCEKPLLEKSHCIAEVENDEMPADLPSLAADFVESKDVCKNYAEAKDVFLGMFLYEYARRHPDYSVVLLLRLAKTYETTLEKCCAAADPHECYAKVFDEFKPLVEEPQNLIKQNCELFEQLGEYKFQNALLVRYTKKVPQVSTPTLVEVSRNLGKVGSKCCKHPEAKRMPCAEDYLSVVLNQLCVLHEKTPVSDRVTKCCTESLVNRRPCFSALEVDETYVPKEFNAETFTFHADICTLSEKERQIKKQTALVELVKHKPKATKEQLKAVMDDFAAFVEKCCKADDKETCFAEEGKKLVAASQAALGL

Binder	binding result [1]	Kd [3] [pM]	koff [3] [s⁻¹]	kon [3] [M⁻¹ s⁻¹]	IC50, IL-17A induced IL-6 production, NHDF cells; 0 weeks at 40 C [5] [pM]	IC50, IL-17A induced IL-6 production, NHDF cells; after 2 weeks at 40 C [5] [pM]	IC50, IL-17A induced IL-6 production, NHDF cells; after 4 weeks at 40 C [5] [pM]	binding result [10]	other results
B1	no binding (tested: 20 nM)	4000	0.002	510000	–	–	–	–	IC50, IL-17A induced IL-6 production, NHDF cells [2]: 5700 pM
B2	no binding (tested: 20 nM)	1100	0.0014	1.3e+06	–	–	–	–	–
B3	no binding (tested: 20 nM)	2400	0.0015	620000	–	–	–	–	IC50, IL-17A induced IL-6 production, NHDF cells [2]: 6400 pM
B4	–	–	–	–	–	–	–	–	binding result [4]: binds; IC50, IL-17A induced IL-6 production, NHDF cells, with HSA [5]: 270 pM; Kd [6]: < 0.065 pM; kon [6]: 1.35e+07 M⁻¹ s⁻¹; koff [7]: 1.51e-07 s⁻¹; fold in vivo blocking effect compared to ZAZ3174 [8]: 6 fold
B5	–	–	–	–	380	250	490	binds	Kd [9]: 29.4 pM; koff [9]: 3.56e-05 s⁻¹; kon [9]: 1.21e+06 M⁻¹ s⁻¹; Kd [6]: 0.323 pM; koff [6]: 1.55e-06 s⁻¹; kon [6]: 4.78e+06 M⁻¹ s⁻¹; Kd [11]: 48.5 pM
B6	–	–	–	–	200	400	470	binds	–
B7	–	–	–	–	450	340	550	binds	–
B8	–	–	–	–	–	–	–	–	IC50, IL-17A induced IL-6 production, NHDF cells, with HSA [12]: 15000 pM
B9	–	–	–	–	–	–	–	–	IC50, IL-17A induced IL-6 production, NHDF cells, with HSA [12]: 67000 pM
